Measurements as given in the supplement of paper PMC8728848.
The other results are listed elsewhere or left out.

How the values were obtained:
Assay in all cases: glycan array binding signal (z-score within array); higher = stronger binding
Details in all cases: glycan notation: IUPAC condensed, linker removed
[1] = target: GlcNAc(b1-2)Gal(b1-3)GalNAc
In short: (§1)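 Glycan array data came from 3228 arrays in the Consortium for Functional Glycomics database, and only arrays with an available protein sequence were kept. Glycan names were put into IUPAC-condensed notation, and columns mapping to the same glycan were averaged. The binding signal is a within-array Z-score, averaged across arrays of one protein sequence run at different concentrations or buffers and across linkers. A negative Z-score can be read as non-binding.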

[2] = target: GlcNAc(b1-2)Man(a1-3)[GlcNAc(b1-2)Man(a1-6)]Man(b1-4)GlcNAc(b1-4)GlcNAc
In short: as §1

[3] = target: GlcNAc(b1-2)Man(a1-3)[GlcNAc(b1-2)Man(a1-6)]Man(b1-4)GlcNAc(b1-4)[Fuc(a1-6)]GlcNAc
In short: as §1

[4] = target: GlcNAc(b1-2)Man(a1-3)[GlcNAc(b1-4)][GlcNAc(b1-2)Man(a1-6)]Man(b1-4)GlcNAc(b1-4)GlcNAc
In short: as §1

[5] = target: GlcNAc(b1-2)Man(a1-3)[GlcNAc(b1-4)][GlcNAc(b1-2)Man(a1-6)]Man(b1-4)GlcNAc(b1-4)[Fuc(a1-6)]GlcNAc
In short: as §1

[6] = target: GlcNAc(b1-2)[GlcNAc(b1-4)]Man(a1-3)[GlcNAc(b1-2)Man(a1-6)]Man(b1-4)GlcNAc(b1-4)GlcNAc
In short: as §1

[7] = target: GlcNAc(b1-2)[GlcNAc(b1-4)]Man(a1-3)[GlcNAc(b1-4)][GlcNAc(b1-2)Man(a1-6)]Man(b1-4)GlcNAc(b1-4)GlcNAc
In short: as §1

[8] = target: GlcNAc(b1-2)[GlcNAc(b1-4)]Man(a1-3)[GlcNAc(b1-4)][GlcNAc(b1-2)[GlcNAc(b1-6)]Man(a1-6)]Man(b1-4)GlcNAc(b1-4)GlcNAc
In short: as §1

[9] = target: GlcNAc(b1-2)[GlcNAc(b1-4)]Man(a1-3)[GlcNAc(b1-4)][GlcNAc(b1-2)[GlcNAc(b1-6)]Man(a1-6)]Man(b1-4)GlcNAc(b1-4)[Fuc(a1-6)]GlcNAc
In short: as §1

[10] = target: GlcNAc(b1-2)[GlcNAc(b1-6)]Man(a1-6)[GlcNAc(b1-2)Man(a1-3)]Man(b1-4)GlcNAc(b1-4)GlcNAc
In short: as §1

[11] = target: GlcNAc(b1-2)[GlcNAc(b1-6)]Man(a1-6)[GlcNAc(b1-2)Man(a1-3)]Man(b1-4)GlcNAc(b1-4)[Fuc(a1-6)]GlcNAc
In short: as §1

[12] = target: GlcNAc(b1-2)[GlcNAc(b1-6)]Man(a1-6)[GlcNAc(b1-4)][GlcNAc(b1-2)Man(a1-3)]Man(b1-4)GlcNAc(b1-4)GlcNAc
In short: as §1

GlcNAc(b1-3)Fuc = target: GlcNAc(b1-3)Fuc
In short: as §1

GlcNAc(b1-3)Gal = target: GlcNAc(b1-3)Gal
In short: as §1

[13] = target: GlcNAc(b1-3)Gal(b1-3)GalNAc
In short: as §1

GlcNAc(b1-3)Gal(b1-4)Glc = target: GlcNAc(b1-3)Gal(b1-4)Glc
In short: as §1

[14] = target: GlcNAc(b1-3)Gal(b1-4)GlcNAc
In short: as §1

[15] = target: GlcNAc(b1-3)Gal(b1-4)GlcNAc(b1-2)Man(a1-3)[GlcNAc(b1-3)Gal(b1-4)GlcNAc(b1-2)Man(a1-6)]Man(b1-4)GlcNAc(b1-4)GlcNAc
In short: as §1

[16] = target: GlcNAc(b1-3)Gal(b1-4)GlcNAc(b1-2)Man(a1-3)[GlcNAc(b1-3)Gal(b1-4)GlcNAc(b1-2)Man(a1-6)]Man(b1-4)GlcNAc(b1-4)[Fuc(a1-6)]GlcNAc
In short: as §1

[17] = target: GlcNAc(b1-3)Gal(b1-4)GlcNAc(b1-2)[GlcNAc(b1-3)Gal(b1-4)GlcNAc(b1-6)]Man(a1-6)[GlcNAc(b1-3)Gal(b1-4)GlcNAc(b1-2)Man(a1-3)]Man(b1-4)GlcNAc(b1-4)GlcNAc
In short: as §1

[18] = target: GlcNAc(b1-3)Gal(b1-4)GlcNAc(b1-3)Gal(b1-4)GlcNAc
In short: as §1

[19] = target: GlcNAc(b1-3)Gal(b1-4)GlcNAc(b1-3)Gal(b1-4)GlcNAc(b1-2)Man(a1-3)[GlcNAc(b1-3)Gal(b1-4)GlcNAc(b1-3)Gal(b1-4)GlcNAc(b1-2)Man(a1-6)]Man(b1-4)GlcNAc(b1-4)GlcNAc
In short: as §1

[20] = target: GlcNAc(b1-3)Gal(b1-4)GlcNAc(b1-3)Gal(b1-4)GlcNAc(b1-2)Man(a1-3)[GlcNAc(b1-3)Gal(b1-4)GlcNAc(b1-3)Gal(b1-4)GlcNAc(b1-2)Man(a1-6)]Man(b1-4)GlcNAc(b1-4)[Fuc(a1-6)]GlcNAc
In short: as §1

[21] = target: GlcNAc(b1-3)Gal(b1-4)GlcNAc(b1-3)Gal(b1-4)GlcNAc(b1-2)[GlcNAc(b1-3)Gal(b1-4)GlcNAc(b1-3)Gal(b1-4)GlcNAc(b1-6)]Man(a1-6)[GlcNAc(b1-3)Gal(b1-4)GlcNAc(b1-3)Gal(b1-4)GlcNAc(b1-2)Man(a1-3)]Man(b1-4)GlcNAc(b1-4)[Fuc(a1-6)]GlcNAc
In short: as §1

[22] = target: GlcNAc(b1-3)Gal(b1-4)GlcNAc(b1-3)Gal(b1-4)GlcNAc(b1-3)Gal(b1-4)GlcNAc(b1-2)Man(a1-3)[GlcNAc(b1-3)Gal(b1-4)GlcNAc(b1-3)Gal(b1-4)GlcNAc(b1-3)Gal(b1-4)GlcNAc(b1-2)Man(a1-6)]Man(b1-4)GlcNAc(b1-4)GlcNAc
In short: as §1

[23] = target: GlcNAc(b1-3)Gal(b1-4)GlcNAc(b1-3)Gal(b1-4)GlcNAc(b1-3)Gal(b1-4)GlcNAc(b1-2)Man(a1-3)[GlcNAc(b1-3)Gal(b1-4)GlcNAc(b1-3)Gal(b1-4)GlcNAc(b1-3)Gal(b1-4)GlcNAc(b1-2)Man(a1-6)]Man(b1-4)GlcNAc(b1-4)[Fuc(a1-6)]GlcNAc
In short: as §1

[24] = target: GlcNAc(b1-3)Gal(b1-4)GlcNAc(b1-3)Gal(b1-4)GlcNAc(b1-3)Gal(b1-4)GlcNAc(b1-2)[GlcNAc(b1-3)Gal(b1-4)GlcNAc(b1-3)Gal(b1-4)GlcNAc(b1-3)Gal(b1-4)GlcNAc(b1-6)]Man(a1-6)[GlcNAc(b1-3)Gal(b1-4)GlcNAc(b1-3)Gal(b1-4)GlcNAc(b1-3)Gal(b1-4)GlcNAc(b1-2)Man(a1-3)]Man(b1-4)GlcNAc(b1-4)[Fuc(a1-6)]GlcNAc
In short: as §1

[25] = target: GlcNAc(b1-3)Gal(b1-4)GlcNAc(b1-3)Gal(b1-4)GlcNAc(b1-3)Gal(b1-4)GlcNAc(b1-3)Gal(b1-4)GlcNAc(b1-2)Man(a1-3)[GlcNAc(b1-3)Gal(b1-4)GlcNAc(b1-3)Gal(b1-4)GlcNAc(b1-3)Gal(b1-4)GlcNAc(b1-3)Gal(b1-4)GlcNAc(b1-2)Man(a1-6)]Man(b1-4)GlcNAc(b1-4)GlcNAc
In short: as §1

[26] = target: GlcNAc(b1-3)Gal(b1-4)GlcNAc(b1-3)Gal(b1-4)GlcNAc(b1-3)Gal(b1-4)GlcNAc(b1-3)Gal(b1-4)GlcNAc(b1-2)Man(a1-3)[GlcNAc(b1-3)Gal(b1-4)GlcNAc(b1-3)Gal(b1-4)GlcNAc(b1-3)Gal(b1-4)GlcNAc(b1-3)Gal(b1-4)GlcNAc(b1-2)Man(a1-6)]Man(b1-4)GlcNAc(b1-4)[Fuc(a1-6)]GlcNAc
In short: as §1

[27] = target: GlcNAc(b1-3)Gal(b1-4)GlcNAc(b1-3)Gal(b1-4)GlcNAc(b1-3)Gal(b1-4)GlcNAc(b1-3)Gal(b1-4)GlcNAc(b1-2)[GlcNAc(b1-3)Gal(b1-4)GlcNAc(b1-3)Gal(b1-4)GlcNAc(b1-3)Gal(b1-4)GlcNAc(b1-3)Gal(b1-4)GlcNAc(b1-6)]Man(a1-6)[GlcNAc(b1-3)Gal(b1-4)GlcNAc(b1-3)Gal(b1-4)GlcNAc(b1-3)Gal(b1-4)GlcNAc(b1-3)Gal(b1-4)GlcNAc(b1-2)Man(a1-3)]Man(b1-4)GlcNAc(b1-4)[Fuc(a1-6)]GlcNAc
In short: as §1

[28] = target: GlcNAc(b1-3)Gal(b1-4)GlcNAc(b1-3)Gal(b1-4)GlcNAc(b1-3)GalNAc
In short: as §1

[29] = target: GlcNAc(b1-3)Gal(b1-4)GlcNAc(b1-3)GalNAc
In short: as §1

[30] = target: GlcNAc(b1-3)Gal(b1-4)GlcNAc(b1-3)[GlcNAc(b1-3)Gal(b1-4)GlcNAc(b1-3)]GalNAc
In short: as §1

[31] = target: GlcNAc(b1-3)Gal(b1-4)GlcNAc(b1-6)[Gal(b1-3)]GalNAc
In short: as §1

[32] = target: GlcNAc(b1-3)Gal(b1-4)GlcNAc(b1-6)[GlcNAc(b1-3)Gal(b1-3)]GalNAc
In short: as §1

[33] = target: GlcNAc(b1-3)Gal(b1-4)GlcNAc(b1-6)[GlcNAc(b1-3)]Gal(b1-4)GlcNAc
In short: as §1

GlcNAc(b1-3)GalNAc = target: GlcNAc(b1-3)GalNAc
In short: as §1

B1: mCC1-Hexahis-Precomplexed (Mus musculus), P31809 (protein)
chain: MELASAHLHKGQVPWGGLLLTASLLASWSPATTAEVTIEAVPPQVAEDNNVLLLVHNLPLALGAFAWYKGNTTAIDKEIARFVPNSNMNFTGQAYSGREIIYSNGSLLFQMITMKDMGVYTLDMTDENYRRTQATVRFHVHPILLKPNITSNNSNPVEGDDSVSLTCDSYTDPDNINYLWSRNGESLSEGDRLKLSEGNRTLTLLNVTRNDTGPYVCETRNPVSVNRSDPFSLNIIYGPDTPIISPSDIYLHPGSNLNLSCHAASNPPAQYFWLINEKPHASSQELFIPNITTNNSGTYTCFVNNSVTGLSRTTVKNITVLEPVTQPFLQVTNTTVKELDSVTLTCLSNDIGANIQWLFNSQSLQLTERMTLSQNNSILRIDPIKREDAGEYQCEISNPVSVRRSNSIKLDIIFDPTQGGLSDGHHHHHH
glycan array binding signal (z-score) [1]: -0.283
glycan array binding signal (z-score) [2]: -0.166
glycan array binding signal (z-score) [3]: -0.046
glycan array binding signal (z-score) [4]: -0.285
glycan array binding signal (z-score) [5]: -0.266
glycan array binding signal (z-score) [6]: -0.16
glycan array binding signal (z-score) [7]: -0.219
glycan array binding signal (z-score) [8]: -0.254
glycan array binding signal (z-score) [9]: -0.051
glycan array binding signal (z-score) [10]: -0.249
glycan array binding signal (z-score) [11]: -0.27
glycan array binding signal (z-score) [12]: -0.12
glycan array binding signal (z-score) (GlcNAc(b1-3)Fuc): -0.287
glycan array binding signal (z-score) (GlcNAc(b1-3)Gal): -0.15
glycan array binding signal (z-score) [13]: -0.159
glycan array binding signal (z-score) (GlcNAc(b1-3)Gal(b1-4)Glc): -0.227
glycan array binding signal (z-score) [14]: -0.246
glycan array binding signal (z-score) [15]: -0.184
glycan array binding signal (z-score) [16]: -0.076
glycan array binding signal (z-score) [17]: 0.021
glycan array binding signal (z-score) [18]: -0.21
glycan array binding signal (z-score) [19]: 2.77
glycan array binding signal (z-score) [20]: -0.161
glycan array binding signal (z-score) [21]: 0.06
glycan array binding signal (z-score) [22]: -0.143
glycan array binding signal (z-score) [23]: -0.218
glycan array binding signal (z-score) [24]: 0.035
glycan array binding signal (z-score) [25]: -0.228
glycan array binding signal (z-score) [26]: -0.25
glycan array binding signal (z-score) [27]: 0.179
glycan array binding signal (z-score) [28]: 0.066
glycan array binding signal (z-score) [29]: -0.199
glycan array binding signal (z-score) [30]: -0.226
glycan array binding signal (z-score) [31]: -0.27
glycan array binding signal (z-score) [32]: -0.229
glycan array binding signal (z-score) [33]: -0.193
glycan array binding signal (z-score) (GlcNAc(b1-3)GalNAc): -0.207
